“Also recorded” adds a separate entry of the source.
How the values were obtained:
[1] = Differential scanning calorimetry; type: physicochemical; parameters: unit: °C; settings: in °C (unit assumed)
Experimental: Differential Scanning Calorimetry: Thermal melting temperatures (Tm) were measured with a VP-DSC (MicroCal, LLC) using a scan rate of 1.0° C./min and a temperature range of 25-120° C. A filter period of 8 seconds was used along with a 5 minute pre-scan thermostating. Samples were prepared by dialysis into 25 mM Histidine-HCl, pH 6 using Pierce dialysis cups (3.5 kD). Average Mab concentrations were 50 μg/mL as determined by A280. Melting temperatures were determined following manufacturer procedures using Origin software supplied with the system. Briefly, multiple baselines were run with buffer in both the sample and reference cell to establish thermal equilibrium. After the baseline was subtracted from the sample thermogram, the data were concentration normalized and fitted using the deconvolution function.

[2] = system: recombinant HMG1 stimulated cytokine release from human PBMCs; assay: Inhibition of cytokine release from PBMCs, recombinant HMG1; type: cell-based; settings: among antibodies examined
Experimental: (§1) Inhibition of Cytokine Release: Human peripheral blood mononuclear cells (PBMCs) were isolated from the peripheral blood of healthy volunteers by a density gradient centrifugation. Freshly drawn heparinized whole blood was mixed with two volume of PBS. The diluted blood was gently layered on the surface of Histopaque-1077 (Sigma-Aldrich) and centrifuged at 400×g, at RT for 30 minute. PBMCs were collected from the interface between the plasma and the density gradient solution. After washing in PBS 3×, the purified PBMCs were resuspended in RPMI-1640 medium (GIBCO BRL) containing 100 U/ml penicillin, 100 μg/ml streptomycin and […] β-mercaptoethanol. 1×10^5 of cells was added in each well of 96-well cell culture plates. […]
(§2) The culture media were analyzed for inflammatory cytokines using Beadlyte human multi-cytokine flex kit from Upstate by Luminex 100 (Luminex Corp.). Proinflammatory cytokines TNF-α, IL-6, IL-1β and IL-12 (p40) were measured for cells stimulated with recombinant HMG1. In addition, TNF-α, IL-6, IL-1β and IL-8 were measured for cells stimulated with native activated HMG1.
(§3) Cytokine release data is presented as mean of triplicates±standard deviations. […] It was calculated by PRISM program.

[3] = system: native activated HMG1 stimulated IL-6 release from human PBMCs; assay: Inhibition of cytokine release from PBMCs, native activated HMG1; type: cell-based
Experimental: as §1, §2, §3

[4] = system: passive CIA mouse model of arthritis; assay: Passive collagen-induced arthritis (CIA) mouse model; type: in vivo
Experimental: Induction of Passive Collagen Induced Arthritis (CIA): To establish an arthritis model six-eight week old male DBA/1J mice (Jackson Labs, Bar Harbor, Me.) were used. Generally 5-8 mice per group are used, On day 0, mice were immunized with 2 mg/mouse of anti-collage mAb cocktail (Chemicon # ECM1100, 10 mg/ml) intravenously, i.v. at tail. Mice were subsequently injected with 50 μg LPS/mouse, i.p. on day 3. Each experiment had several groups of animals as follows: groups A-E in experiment 1, groups G-J in experiment 2 and groups L-N). An additional group of mice (groups F, K and O) were untreated as normal controls.
Monitoring Disease: Beginning at day 0 all animals were observed daily to assess the status of the disease in their paws, which was done by assigning a qualitative clinical score to each of the paws. Every day, each animal has its 4 paws scored according to its state of clinical disease. The scoring is done by two observers, with at least one blinded. In addition, each mouse is weighed, to follow body weight changes, at the same time the paws are scored (see FIGS. 6A and 6D)
The grading scale for the 4 lateral digits of each paw are graded as involved or not involved, i.e., 1 or 0. For example, a maximally involved left rear paw would be scored: ankle=3, midfoot=3, digits=4 (clinical score=10 units) We would repeat this for each paw and sum the scores. Mice are euthanized at day 14, or sooner if total clinical score reaches 40 and a histological evaluation of joints is performed.
Histology: Hind-limb tibiotalus joints from each animal were evaluated and scored for histologic changes as described in Badger et al., 2001, Arthritis & Rheumatism 44:128-37. Briefly, animals were sacrificed on day 32 and the hind legs were fixed in formaline and decalcified in Cal-Rite (Richard-Allen Scientific, Kalamazoo, Mich.). The paws were then removed from the legs at the distal tibial diaphysis. After routine processing, the samples were embedded and coronal sections were cut in the plane midway through the tibiotalus and talartarsal joints. Sections were stained with Safranin O and counterstained with fast Green (data not shown).
The histological characteristic of the bone and articular cartilage/periarticular soft tissue were scored separately by a blinded observer (FIGS. 13B and 13C). The bone was graded as follows: 0=normal, 1=subperiosteal fibrosis with periosteal woven bone formation, 2=Marrow inflammation, endosteal and trabecular bone resorption, 3=extensive inflammation, 4-marrow replaced by granulation tissue, little trabecular bone remaining, extensive obliteration of cortical contours. […]

B1: S6: human anti-HMG1 antibody, ATCC PTA-6143; VL/VH aa SEQ ID NO: 9/11 (antibody, listed as Homo sapiens, V domains shown)
VH: EVQLLESGGGLVQPGGSLRLSCAASGFTFSWYDMSWVRQAPGKGLEWVSRISPSGGYTMYADSVKGRFTISRDNSKNTLYLQMNSLRAEDTAVYYCARLEVGATSGGTAFDIWGQGTMVTVSS
VL: [gap - about 100 residues]
**Q.** With B1 as the molecule, how does the Tm [1] read?
**A.** 76.3

**Q.** What about the “comparison as inhibitor of cytokine / NO release” value [2] of the same molecule?
**A.** among the best inhibitor of IL-1β, TNF-α, IL-6 and NO release

**Q.** And the “block of IL-6 release induced by native activated HMG1” value [3]?
**A.** less effective

**Q.** What about the “paw inflammation / clinical scores” value ([4]; passive CIA mice) of the same molecule?
**A.** more effective then even MTX/Renbrel therapy in reducing paw inflammation and in reducing bone loss and cartilage damage; also recorded: profound effect in diminishing the disease severity in CIA mice; also recorded: reduced clinical scores with S6 having a more dramatic effect

**Q.** And the body weight ([4]; passive CIA mice, experiment 1)?
**A.** did not lose as much as the control group; also recorded: showing better efficacy

**Q.** What about the “histological bone, cartilage and inflammation scores” value ([4]; passive CIA mice, experiment 1) of the same molecule?
**A.** greatly reduced bone, cartilage and total inflammation scores compared to the control animals; also recorded: significantly better then those treated with the MTX/Renbrel combination therapy

**Q.** What about the “in vivo CIA passive” value ([4]; percent protection, isotype control subtracted) of the same molecule?
**A.** 60%
